Source: PMC12040169 (PLOS Biology, 2025)
The list shows a part of the results.

Tested on: T1, C. trachomatis L2/434/Bu expressing GFP (CTL2-GFP)
T1 construct: L2/434/Bu GFP intracellular growth in HeLa cells
Parameters: species or system HeLa; C. trachomatis total inclusion area by high-content imaging, normalised to DMSO
Settings: total inclusion area; 28.5 h, 10 µM; inhibitor
How it was run: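 Following bulk GFP and resorufin fluorescence reads, infected cells were fixed, Hoechst-stained and imaged on a high-content platform. Inclusion total area and number per well served as growth proxies; nuclei counts indicated host viability. MICs were derived as for the fluorescence assay.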

Compound | % of control remaining
Cc1ccc(C(CCO)Nc2ncnc3c2c(C)nn3C)cc1 (stereo not shown) [CBK307387] | 61.3093
Cc1nonc1CC(=O)NC1(c2ccc(F)cc2)CCCC1 [CBK283613] | 93.5615
COc1ncc(-c2nccnc2OCCn2cnc3c2c(=O)n(C)c(=O)n3C)c(OC)n1 [CBK106746] | 97.6986
Cc1cc(CN2CCN(S(=O)(=O)c3ccc(-c4ccccc4)cc3)CC2)cc(C)c1O [CBK062747] | 71.5675
CN(C)C(=O)c1ccc(-c2ccc3c(c2)OC(C2CCN(C(=O)OCc4ccccc4)CC2)OC3)cc1 (stereo not shown) [CBK144649] | 68.2605
O=C(Nc1nccc(-c2cc(OCC(F)(F)F)ccc2OCC(F)(F)F)n1)c1cccs1 [CBK005949] | 44.4128
Cc1nc(C)c(C(=O)NCCN2CCCC2=O)s1 [CBK282222] | 103.194
O=C(COC(=O)C1CCC(N2C(=O)c3ccccc3C2=O)CC1)c1ccc(-c2ccccc2)cc1 (stereo not shown) [CBK264789] | 96.8657
Cn1c(=O)c2[nH]c(N3CCN(c4cccc(O)c4)CC3)nc2n(C)c1=O [CBK269760] | 87.4264
O=C(N/N=C\c1ccccc1C(F)(F)F)c1ccc(=O)[nH]n1 [CBK263389] | 79.7023
CC(C)(C)c1csc(N2CCSCC2)n1 [CBK021950] | 19.8116
O=C(O)CCn1ncc2ccccc21 [CBK262257] | 84.3051
O=C(NC(Cc1ccsc1)c1ccccn1)c1ccc(=O)[nH]c1 (stereo not shown) [CBK285272] | 92.6861
COc1ccccc1OCCNC1CCc2cc(Cl)ccc2C1 (stereo not shown) [CBK013067C] | 90.2971
Cc1nn(CCC#N)c(C)c1[C@@H]1C=C[C@@H](NC(=O)NC(C)C)C1 [CBK289172] | 87.8118
Cc1cccc(C(=O)Nc2ccc(C(=O)NNC(=O)C(C)(C)C)cc2)c1 [CBK269073] | 67.977
COc1cc(CNC(=O)c2cccc(-c3ccc(OC4CCNCC4)cc3)n2)cc(OC)c1OC [CBK126550T] | 86.9506
Cn1cc(C(=O)N2CCC3(C/C=C/C[C@H]4COCC[C@H]4NC(=O)CNC3=O)CC2)cn1 [CBK292069] | 110.699
Cc1ccc(N(CC(=O)Nc2ccc(C)cc2C)S(=O)(=O)N2CCCC2)cc1 [CBK265998] | 96.4031
CC(NS(=O)(=O)c1ccc(Cl)cc1)C(=O)Nc1ccccc1Sc1ccccc1 (stereo not shown) [CBK266984] | 94.3597

Compound | % of control remaining
CCOC(=O)C(NC(=O)N(C1=NCC(C)S1)C1CCCCC1)(OC)C(F)(F)F (stereo not shown) [CBK021431] | 102.107
N#CC1CCCc2c1[nH]c1ccc(Cl)cc21 (stereo not shown) [CBK101438] | 50.5577
Cc1ccc(C2=CCN(S(=O)(=O)c3ccc(F)cc3)CC2)o1 [CBK283571] | 67.3055
O=C1COc2ccccc2C/C=C/C[C@H]2CNCC[C@H]2N1 [CBK292033] | 109.701
C/C(=N\NC(=O)c1ccc(CN2CCOCC2)cc1)c1ccc2c(c1)OCCO2 [CBK262755] | 98.4603
CC(=O)NCCSc1nc2ccccc2nc1NC(C)C [CBK105618] | 106.943
Cn1cc(-c2nc(C3CCCCCN3C(=O)c3cccnc3)no2)cn1 (stereo not shown) [CBK305387] | 83.477
O=C1CC(N2CCN(Cc3ccc4c(c3)OCO4)CC2)C(=O)N1CCc1ccccc1 (stereo not shown) [CBK074541] | 63.9662
CC(C)Nc1cc(Sc2ccc(Br)cc2)ncn1 [CBK089502] | 105.988
Cc1ccc2[nH]c(Cc3ccc(NC(=O)c4cc(=O)n(C)c5ccccc45)cc3)nc2c1 [CBK285815] | 105.244
Clc1cncc(OCCc2c[nH]c3ccccc23)n1 [CBK176027] | 39.8106
COc1ccc(Nc2nc(-c3cccnc3)cnc2N)cc1 [CBK063952] | 69.7528
Cc1cc(N(C)CCc2ccccc2)nc2cc(Cl)ccc12 [CBK262221] | 82.1607
O=C(CN1CCC(O)(Cc2ccccc2)CC1)N1CCCCCC1 [CBK283500] | 105.575
O=C1NCCCC12CCN(Cc1cccc(F)c1F)CC2 [CBK284877] | 108.514
CCCC(=O)c1ccc(S(=O)(=O)N2CCN(Cc3csc(-c4ccccc4)n3)CC2)cc1 [CBK063161] | 85.7527
COc1ccc(C(=O)N2CCN3C(=O)CCC32C)s1 (stereo not shown) [CBK282058] | 100.707
COc1cc(OC)nc(C(NC(=O)C2CCN(Cc3cn(C)c4ccccc34)CC2)c2ccc(F)cc2)n1 (stereo not shown) [CBK148185] | 99.7421
Cc1ncc(CN(Cc2ccccn2)Cc2ccccc2Cl)n1C [CBK282128] | 87.603
O=C(Cn1c(-c2cccs2)n[nH]c1=S)N1CCC(c2nc3cc(Cl)ccc3o2)CC1 [CBK297765] | 99.3295
